# Experimental data taken from paper PMC4336329 (PLoS ONE, 2015).
# In all, about 310,000 compounds went through this assay and about 2,200 (0.71%) showed an effect of 50% or more. Effects have a minus sign here. The list shows a part of the results.
# Target: human ether-à-go-go-related gene (hERG) potassium channel (human, UniProt Q12809)
# Test: primary screen, population patch clamp on CHO cells stably expressing hERG
# Chain of human ether-à-go-go-related gene (hERG) potassium channel (Q12809 whole entry, looked up): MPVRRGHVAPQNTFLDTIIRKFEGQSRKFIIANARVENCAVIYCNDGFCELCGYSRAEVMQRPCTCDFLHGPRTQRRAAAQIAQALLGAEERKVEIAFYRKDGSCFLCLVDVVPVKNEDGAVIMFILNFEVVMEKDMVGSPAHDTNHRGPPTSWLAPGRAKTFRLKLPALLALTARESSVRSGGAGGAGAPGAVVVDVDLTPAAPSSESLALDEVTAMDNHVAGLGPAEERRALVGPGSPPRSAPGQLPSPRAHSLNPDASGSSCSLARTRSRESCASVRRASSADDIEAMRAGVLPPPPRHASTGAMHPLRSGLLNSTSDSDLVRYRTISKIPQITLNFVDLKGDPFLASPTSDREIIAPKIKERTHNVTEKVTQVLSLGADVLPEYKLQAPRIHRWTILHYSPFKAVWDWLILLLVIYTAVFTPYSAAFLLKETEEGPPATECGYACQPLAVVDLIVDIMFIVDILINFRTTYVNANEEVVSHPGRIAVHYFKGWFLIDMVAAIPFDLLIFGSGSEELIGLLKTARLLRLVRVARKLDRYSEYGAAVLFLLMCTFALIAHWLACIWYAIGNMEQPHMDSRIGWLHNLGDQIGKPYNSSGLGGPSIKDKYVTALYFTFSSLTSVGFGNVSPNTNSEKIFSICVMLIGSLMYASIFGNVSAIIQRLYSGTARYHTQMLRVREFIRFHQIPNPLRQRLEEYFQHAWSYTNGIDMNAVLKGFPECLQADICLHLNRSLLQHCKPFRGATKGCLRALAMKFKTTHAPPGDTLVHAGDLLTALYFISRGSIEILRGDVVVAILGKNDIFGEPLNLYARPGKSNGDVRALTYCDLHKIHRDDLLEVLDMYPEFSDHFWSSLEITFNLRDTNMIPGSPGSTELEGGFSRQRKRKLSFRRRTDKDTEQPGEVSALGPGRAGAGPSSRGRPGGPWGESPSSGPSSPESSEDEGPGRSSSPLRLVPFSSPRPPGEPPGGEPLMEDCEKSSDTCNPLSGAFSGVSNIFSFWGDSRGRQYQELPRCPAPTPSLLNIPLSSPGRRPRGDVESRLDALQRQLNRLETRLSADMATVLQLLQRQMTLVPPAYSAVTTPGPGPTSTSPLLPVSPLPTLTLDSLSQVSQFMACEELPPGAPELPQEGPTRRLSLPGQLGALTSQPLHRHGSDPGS
row,Compound,"hERG current change (%, negative = inhibition) at 1uM"
1,O=S(=O)(c1ccc(Br)c2ccccc12)N1CCCC1,20.3%
2,CCn1nc(C(=O)OCC(=O)NCC(C)C)c2ccccc2c1=O,8.86%
3,NNC(=O)c1cccc(S(=O)(=O)Nc2cc(Cl)ccc2Cl)c1,10.2%
4,CCc1noc(C)c1C(=O)N(CC)CC(=O)Nc1cc(Cl)ccc1C,6.21%
5,COc1cc(C(=O)NCC2CCCCC2)ccc1OCc1c(C)noc1C,6.4%
6,COCCN1C=C2C(=O)C(C)(OC(=O)CCC(=O)OC)C(=O)C=C2C=C1C1CC1 (centres unmarked),11.8%
7,Cl.Cn1cc(C(=O)NCN2CCCCC2)c2ccccc21,14%
8,CCOP(=O)(OCC)C(NC(=O)Nc1ccc(Cl)c(Cl)c1)c1ccccc1 (centres unmarked),7.76%
9,CCOc1cccc(C2C(C(=O)c3cccs3)=C(O)C(=O)N2Cc2cccnc2)c1 (centres unmarked),17.4%
10,C=CCn1c(COc2ccc(F)cc2)nnc1SCC(=O)N1CC(=O)Nc2ccccc21,-12%
11,CCOc1ccc(-c2nnn(CC(=O)Nc3cc(OC)cc(OC)c3)n2)cc1OCC,18.5%
12,CCCCCCCCCCCCCCCC[N+](C)(C)CCN(Cc1ccc(OC)cc1)c1ncccn1.[Br-],-61.5%
13,COc1ccc(OC)c(/C=N/NC(=O)CNC(=O)c2ccc(S(=O)(=O)N3CCCC3)cc2)c1,-18.4%
14,COc1ccc(N2CC(C(=O)NCc3nnnn3-c3ccc(C)c(C)c3)CC2=O)cc1 (centres unmarked),11%
15,COc1ccc(-c2cnnc(N/N=C/c3ccc(OC)c(OC)c3)n2)cc1,2.27%
16,CCCn1c(SCC(=O)N2CCCCC2)nnc1-c1ccco1,10.3%
17,CCCn1nc(NC(=O)c2cccs2)c2cc3ccc(C)cc3nc21,14.7%
18,CCCCn1c(SCC(=O)NCc2ccccc2)nc2ccc(N3CCOCC3)cc2c1=O,-8.59%
19,C/C=C/Cn1c(SCc2ccccc2)nc2c1c(=O)[nH]c(=O)n2C,8.77%
20,CCn1nc(NS(=O)(=O)c2ccccc2)c2cc3ccccc3nc21,11.9%
21,Cc1ccccc1NC(=O)C1CC(=O)OC12CCOC(C)(C)C2 (centres unmarked),10.3%
22,CCOC(=O)C1=C(C)NC(=O)C(C#N)C1c1ccncc1 (centres unmarked),-1.54%
23,CCc1cccc(NC(=O)c2ccc(Br)o2)c1,-12.2%

row,Compound,"hERG current change (%, negative = inhibition) at 1uM"
1,CCOC(=O)C1CCN(C(=O)CN2C(=O)c3cccnc3Oc3ccc(C)cc32)CC1,-3.14%
2,O=C(Nc1ccc(F)cc1F)N1CCC(c2nc3ccccc3o2)CC1,2.73%
3,C=CCc1c(C)[nH]c(=O)[nH]c1=O,10.4%
4,O=C(Nc1ccc(C(=O)N2CCCCC2)cc1)c1ccc([N+](=O)[O-])cc1,9.11%
5,Cc1cc(C)n2nc(C(=O)NNC(=O)c3ccccc3)nc2n1,9.78%
6,CCCN(CCC)S(=O)(=O)c1ccc(C(=O)Nc2cccnc2)cc1,16.2%
7,COCC1CCCCC1OS(N)(=O)=O (centres unmarked),8.97%
8,Cc1cccc(C)c1NC(=O)/C(C#N)=C/c1ccsc1,13.1%
9,COc1ccc(C2(c3ccc(OC)cc3)NC(=O)NC2=O)cc1,8.6%
10,O=C(CC1SC2=NCCN2C1=O)Nc1ccc(Br)cc1 (centres unmarked),7.38%
11,CC(=O)N(Cc1ccc(Cl)cc1)c1cnccn1,16.8%
12,O=C(COC(=O)c1cccc(S(=O)(=O)N2CCN(c3ccccc3)CC2)c1)NCC1CCCO1 (centres unmarked),10.3%
13,N[C@@]1(C(=O)O)CC[C@@H](C(=O)O)C1.O,8.45%
14,CCN(c1ccccc1)S(=O)(=O)c1cccc(C(=O)N2CCN(S(=O)(=O)c3ccccc3)CC2)c1,7.08%
15,Cc1ncc([N+](=O)[O-])n1CC(=O)N/N=C/c1ccc(F)cc1,-2.69%
16,Cn1nc(-c2ccccc2)c2cc(C(=O)O)sc21,22.5%
17,CCOC(=O)c1nnn(-c2ccccc2)c1C,-7.79%
18,CC(=O)NC1(c2nnnn2CCOC(=O)Nc2ccc(Cl)cc2)CCCC1,4.85%
19,CCOC(=O)C1CCCN(C(=O)Cn2cccc2C(=O)c2ccccc2)C1 (centres unmarked),-7.46%
20,COC(=O)CSc1nc(C)c(C)c(C)c1C(N)=O,1.4%
21,COCCCNC(=O)CCCn1c(=O)[nH]c2ccccc2c1=O,14.9%
22,O=C(O)c1ccc2[nH]c3c(c2c1)CCCC3,15.2%
23,CC1=CC(=O)C(C(C)=Nc2ccccc2Cl)C(=O)O1 (centres unmarked),-4.74%

row,Compound,"hERG current change (%, negative = inhibition) at 1uM"
1,O=C(/C=C/c1ccccc1)N/C(=C/c1ccccc1)C(=O)Nc1ccccc1O,-5.04%
2,O=c1c(Cc2c(F)cccc2Cl)c(O)ccn1Cc1ccc(F)cc1,1.36%
3,Cc1ccc(NC(=O)CN2CCC(Cc3ccccc3)CC2)cc1S(=O)(=O)N(C)C.O=C(O)C(=O)O,20.2%
4,CCN(CC)S(=O)(=O)c1ccc(N2CCN(c3cccc(OC)c3)CC2)c([N+](=O)[O-])c1,5.03%
5,Cc1ccc(Nc2ncnc3sccc23)c(C)c1,10.5%
6,COc1ccc2oc(-c3ccccc3[N+](=O)[O-])cc(=O)c2c1,4.52%
7,COc1ccc(NC(=O)COc2ccc(/C=C/c3cc[n+](C)cc3)cc2OC)cc1.[I-],17.7%
8,COc1ccc(NC(=O)/C=C/C(=O)O)c(OC)c1,13.5%
9,Cc1ccc(/C(N)=N/OC(=O)c2ccc3ccccc3c2)cc1,6.7%
10,COc1ccccc1N1CCN(Cc2cc(=O)c(OCC#N)co2)CC1,12.4%
11,Cc1ccc(N(CC(N)=O)C2SC(=O)N(Cc3cccc(C(=O)O)c3)C2=O)cc1 (centres unmarked),15.2%
12,Cn1c(=O)[nH]c(=O)c2c1nc(N1CCCCCC1)n2CCSc1nc2ccccc2[nH]1,7.44%
13,Cc1cc(C(=O)Nc2cccc3ncccc23)no1,10.2%
14,Nc1nonc1C(=O)N/N=C/c1ccncc1,2.6%
15,CCCNS(=O)(=O)c1ccc(NC(=O)c2ccccn2)cc1,-3.45%
16,O=C(CCCOc1ccc(Cl)cc1)Nc1nncs1,-12.5%
17,CCCCc1cc(=O)oc2cc(C)c(CN3CCCC3)c(O)c12,-7.77%
18,COC(=O)N/N=C1/C/C(=N\NC(=O)OC)c2ccccc21,10.5%
19,CS(=O)(=O)c1ccc(C(=O)CN2C(=O)NC3(CCCc4ccccc43)C2=O)cc1 (centres unmarked),4.03%
20,COc1ccc(-c2csc(NC(=O)CCNC(=O)c3ccco3)n2)cc1OC,-3.11%
21,Nc1nc(SCc2ccc(Br)cc2)[nH]c(=O)c1-c1ccccc1,9.34%
22,CCN(CC(=O)NCc1cccs1)S(=O)(=O)c1ccc(NC(C)=O)cc1,6.09%
23,CCN(CC)CCNC(=O)c1ccc(NC(=O)CC(NC(=O)c2ccccc2Cl)c2ccccc2)cc1 (centres unmarked),14.6%

row,Compound,"hERG current change (%, negative = inhibition) at 1uM"
1,COC(=O)CSc1nc(C)c(C(=O)Nc2ccccc2C)c(-c2ccc(Cl)cc2)c1C#N,11.6%
2,CCOc1ccc(/C=C2\SC(=S)N(CC(=O)NCCCN3CCOCC3)C2=O)cc1,5.32%
3,COc1ccc(NC(=O)c2cc(-c3ccc(C)cc3O)n[nH]2)c(OC)c1,13.4%
4,COc1ccc(Nc2c3c(nc4ccccc24)CCC3)c(OC)c1,-27.8%
5,CCOc1ccc(Cc2onc3c2C(=O)CC(C)(C)C3)cc1OCC,4.63%
6,CCOC(=O)c1ccccc1N1C(=O)C2Sc3[nH]c(=O)sc3C(/C=C/c3ccccc3)C2C1=O (centres unmarked),11.1%
7,CCOc1ccc(NC2CCN(C(C)=O)CC2)cc1,13%
8,COc1ccc(NC(=O)CSc2nnc(-c3cccnc3)n2C)cc1,12.9%
9,Cc1cccc(C)c1NC(=O)c1c(O)c2ccccc2[nH]c1=O,15.5%
10,O=C(c1ccc(Cl)cc1)c1cc(-c2ccccn2)c(N2CCOCC2)s1,7.35%
11,CC(C(=O)NCCc1ccc(S(N)(=O)=O)cc1)N1C(=O)CC(C)(C)Sc2ccccc21 (centres unmarked),3.02%
12,O=C(Nc1ccccn1)c1ccc2c(c1)OCCO2,9.35%
13,Cc1cc(C)c(NC(=O)C2CCCN2CCO)c(C)c1 (centres unmarked),-9.41%
14,Cc1cc(C(=O)COC(=O)C2=NNC(=O)CC2)c(C)n1-c1cccc(C(F)(F)F)c1,0.965%
15,CC(C)CC(NC(=O)c1ccc(Cl)cc1Cl)C(=O)O (centres unmarked),8.36%
16,CN(C)C(CNC(=O)c1cccc(S(=O)(=O)Nc2ccc(Br)cc2)c1)c1ccco1 (centres unmarked),5.02%
17,COc1ccc(CNC(=O)CN(c2cccc([N+](=O)[O-])c2)S(C)(=O)=O)cc1,8.45%
18,CC(C)CCC(CCN1CCCC1)c1ccc2c(c1)OCO2.O=C(O)C(=O)O (centres unmarked),-83.3%
19,O=C(NC1CCN(Cc2ccccc2)CC1)c1ccc(Cn2c(=S)[nH]c3ccc(N4CCOCC4)cc3c2=O)cc1,4.15%
20,O=C(Nc1ccccc1)/C(=C/c1ccc([N+](=O)[O-])cc1)NC(=O)c1ccccc1,12.9%
